Source: PubChem BioAssay AID720708 (National Center for Advancing Translational Sciences (NCATS), 2013)
About 660 (0.18%) of roughly 360,000 compounds were called active. The inconclusive results got no clear call from the source; some entries with a clear call stand among them for comparison. Calls follow the shape of the dose curve; as a rule, active = well fitted inhibition curve with a large enough effect; inconclusive = small, poorly fitted or top-dose-only effect; inactive = no such curve, though single readings can be large or run the other way. No potency is given beside an inconclusive call; the fits are too rough.

target: Rap guanine nucleotide exchange factor 4 (Homo sapiens) (UniProt Q8WZA2); assay: qHTS for Antagonist of cAMP-regulated guanine nucleotide exchange factor 2 (EPAC2): primary screen; settings: EPAC2 GEF exchange of Rap1B-BODIPY-GDP, fluorescence; activity, negative = inhibition: at 114 µM (top of the series); also: nearly all actives have a fitted effect of over 45% in size
% is scaled to controls: 0 for no effect and ±100 for the full control effect; potency is read from the fitted curve at half-maximal effect; tags tell the direction and shape of the fitted curve.

UniProt Q8WZA2, sequence (Q8WZA2 whole entry, looked up): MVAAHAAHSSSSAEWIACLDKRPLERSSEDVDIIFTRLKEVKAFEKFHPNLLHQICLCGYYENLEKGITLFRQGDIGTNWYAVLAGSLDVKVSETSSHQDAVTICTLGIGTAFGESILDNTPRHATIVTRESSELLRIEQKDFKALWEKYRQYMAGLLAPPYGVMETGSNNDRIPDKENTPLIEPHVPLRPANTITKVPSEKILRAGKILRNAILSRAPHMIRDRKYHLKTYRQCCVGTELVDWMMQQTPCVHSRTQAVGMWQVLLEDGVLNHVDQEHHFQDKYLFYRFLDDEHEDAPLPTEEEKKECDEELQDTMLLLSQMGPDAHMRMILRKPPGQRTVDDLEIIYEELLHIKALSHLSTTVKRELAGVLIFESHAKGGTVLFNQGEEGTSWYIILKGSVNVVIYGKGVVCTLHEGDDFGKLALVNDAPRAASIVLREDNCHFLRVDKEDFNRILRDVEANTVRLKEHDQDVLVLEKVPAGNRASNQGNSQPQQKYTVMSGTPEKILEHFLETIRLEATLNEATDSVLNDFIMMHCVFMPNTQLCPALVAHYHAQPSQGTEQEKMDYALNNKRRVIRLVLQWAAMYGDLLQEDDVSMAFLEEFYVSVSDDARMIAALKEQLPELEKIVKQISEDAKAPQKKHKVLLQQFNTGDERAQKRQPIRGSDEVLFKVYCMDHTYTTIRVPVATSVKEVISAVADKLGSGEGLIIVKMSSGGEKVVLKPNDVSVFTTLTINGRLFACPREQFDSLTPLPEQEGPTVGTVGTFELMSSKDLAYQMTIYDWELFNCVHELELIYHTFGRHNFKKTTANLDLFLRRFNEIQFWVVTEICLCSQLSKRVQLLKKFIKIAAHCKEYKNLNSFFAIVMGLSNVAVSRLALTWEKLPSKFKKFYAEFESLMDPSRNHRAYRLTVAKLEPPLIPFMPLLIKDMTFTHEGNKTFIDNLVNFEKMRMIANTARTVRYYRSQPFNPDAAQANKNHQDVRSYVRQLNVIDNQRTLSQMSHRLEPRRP

Row | SMILES | Potency | activity, negative = inhibition
1 | O=c1[nH]c(=O)n(-c2ccc(F)cc2)c(O)c1/C=C1\C=Nc2ccccc21 | inconclusive [inhibitor, single point] | 
2 | Cc1ccc(O)c(C(=O)c2cc(C(=O)NCCC(C)C)c(=O)n(CCC(C)C)c2)c1 | inconclusive [inhibitor, full curve, poor fit] | 
3 | Cc1cc2ccccn2c1C(C[N+](=O)[O-])c1c(F)cccc1Cl (stereo not given) | inconclusive [inhibitor, full curve] | 
4 | O=C(c1ccc(Cl)cc1)C1CCCN(Cc2cccn2-c2cccnc2)C1 (stereo not given) | inconclusive [inhibitor, partial curve] | 
5 | CCOC(=O)[C@]12Cc3cc(OC)ccc3[C@H]1N(Cc1ccccc1)C(=O)c1ccccc12 | inconclusive [inhibitor, full curve] | 
6 | COc1ccc(OCC(=O)N2CCN(CC3CC4C=CC3C4)CC2)cc1 (stereo not given) | inconclusive [inhibitor, single point] | 
7 | OCCN1CCN(CCCN2c3ccccc3Sc3ccc(C(F)(F)F)cc32)CC1 | inconclusive [inhibitor, partial curve] | 
8 | Cc1ccccc1-n1c(O)c(/C=C2/C(c3ccccc3)=Nc3ccccc32)c(=O)[nH]c1=O | inactive | 
9 | O=c1c2ccccc2nc(/C=C\c2ccccc2[N+](=O)[O-])n1-c1ccccc1O | inconclusive [inhibitor, partial curve] | 
10 | Cc1ccccc1N1CCN(Cc2ccc3c(c2)OCO3)CC1 | inactive | 
11 | CN(C)c1ccc(NC(=O)CN2C(=O)CN=C(c3ccccc3)c3cc(Cl)ccc32)cc1 | inconclusive [inhibitor, full curve] | 
12 | COc1cccc(CNCCc2c[nH]c3ccccc23)c1 | inconclusive [inhibitor, single point] | 
13 | COC(=O)C1=C(c2ccccc2)C[C@@H]2CC[C@H]1N2C(=O)NCc1ccco1 | inconclusive [inhibitor, single point] | 
14 | Clc1ccc(CCC(Cn2ccnc2)Sc2c(Cl)cccc2Cl)cc1 (stereo not given) | inconclusive [inhibitor, full curve, poor fit] | 
15 | CC(C)(C#CC(=O)O)OOC(c1ccccc1)(c1ccccc1)c1ccccc1 | inconclusive [inhibitor, partial curve] | 
16 | COC(=O)C1=C(C(=O)OC)C2OC1c1cc3ccccc3cc12 | inactive | 
17 | Cc1cccc(C)c1-n1nnnc1C(c1ccccc1OC(F)(F)F)N1CCC(n2c(=O)[nH]c3ccccc32)CC1 (stereo not given) | inconclusive [inhibitor, partial curve] | 
18 | CCOP(=O)(OCC)C(Nc1cc(Cl)cc(Cl)c1)c1cccc(O)c1 (stereo not given) | inconclusive [inhibitor, partial curve] | 
19 | COC(=O)C1=C(c2ccc(F)cc2OCc2ccccc2)C[C@@H]2CC[C@H]1N2C(=O)N1CCOCC1 | inconclusive [inhibitor, single point] | 
20 | COc1cc2c(ccc3c4cc(OC)c(OC)cc4c[n+](C)c23)cc1O | inactive | 

Row | SMILES | Potency | activity, negative = inhibition
21 | O=C(O)CCn1cc(C=C2C(=O)NC(=S)NC2=O)c(-c2cccc(Cl)c2)n1 | inconclusive [inhibitor, full curve] | 
22 | CC(C)c1c(CN(C)C(C)Cc2ccccc2)n(C)n(-c2ccccc2)c1=O (stereo not given) | inconclusive [inhibitor, partial curve] | 
23 | CCOC(=O)[C@]12Cc3ccc(C)cc3[C@H]1N(C1CCCCC1)C(=O)c1ccccc12 | inconclusive [inhibitor, full curve, poor fit] | 
24 | O=S(=O)(c1ccc(Cl)cc1)c1ccc(Cl)cc1 | inactive | 
25 | COc1ccccc1-n1c(-c2ccc(C)cc2)nc2ccccc2c1=O | inconclusive [inhibitor, partial curve] | 
26 | CN1CC[C@@]2(C)c3cc(O)ccc3N(C)[C@@H]12 | inactive | 
27 | COC(=O)COc1ccc(C(c2c(C)[nH][nH]c2=O)c2c(C)[nH][nH]c2=O)cc1 | inconclusive [inhibitor, partial curve] | 
28 | O=C1NC(=S)NC(=O)C1=Cc1c(Cl)cccc1Cl | inconclusive [inhibitor, partial curve] | 
29 | CCCCN(C(C)=O)c1ccc2c(c1)C1CC2CCN1Cc1ccccc1 (stereo not given) | inconclusive [inhibitor, partial curve] | 
30 | Cc1ccc(C(=O)N[C@@H](C)CN2C3=NC[C@H](Cc4ccccc4)N3C[C@H]2Cc2ccc(O)cc2)cc1Br | inactive | 
31 | O=c1[nH]c2ccccc2n1C1CCN(C(c2ccccc2OC(F)(F)F)c2nnnn2Cc2ccccc2)CC1 (stereo not given) | inconclusive [inhibitor, partial curve, poor fit] | 
32 | O=C(O)COc1ccc(/C=C2/SC(=S)N(Cc3ccccc3)C2=O)cc1 | inconclusive [inhibitor, partial curve] | 
33 | CN1CCc2nc(SC(C(=O)O)c3ccccc3)c(C#N)c(-c3cccs3)c2C1 (stereo not given) | inconclusive [inhibitor, partial curve] | 
34 | Brc1ccc(Oc2ccc(Br)cc2Br)c(Br)c1 | inconclusive [inhibitor, full curve] | 
35 | Cc1cc(C=C2C(=O)NC(=S)NC2=O)c(C)n1-c1ccc2c(c1)OCO2 | inactive | 
36 | CCOC(=O)[C@]12Cc3cc(Cl)ccc3[C@H]1N(CC(=O)OC)C(=O)c1ccccc12 | inconclusive [inhibitor, partial curve] | 
37 | COc1cccc(NP(=O)(Oc2ccccc2)Oc2ccccc2)c1 | inconclusive [inhibitor, partial curve] | 
38 | CCOC(=O)[C@]12Cc3cc(C)ccc3[C@H]1N(Cc1ccccc1)C(=O)c1cc(OC)ccc12 | inconclusive [inhibitor, full curve] | 
39 | Cc1nc2ccccc2c(=O)n1-c1c(Cl)cccc1Cl | inconclusive [inhibitor, partial curve] | 
40 | COC1=C[C@@H]2C3=C([C@@H]2C1=O)[C@@H](NC(C)=O)CCc1cc(OC)c(OC)c(OC)c13 |  | inconclusive: -18% [inhibitor]
